The other results are listed elsewhere or left out. Cut-off read from the data, not from the text of the source: active = 3.2 or more and inactive = the rest. Most of these values are background signal.
Columns and labels:
Experiment in all cases: enrichment score (SH2-bound / input frequency) (ratio); bacterial display of known human phosphotyrosine sites (pTyr-Var adds point mutants) read by sequencing; higher = stronger binding; tyrosines were phosphorylated by kinases first
Settings in all cases: peptide library: pTyr-Var
SHP2 C-SH2 domain E139D = biological target: SHP2 C-SH2 domain E139D
[1] = biological target: SHP2 C-SH2 domain wild-type
SHP2 N-SH2 domain L43F = biological target: SHP2 N-SH2 domain L43F
SHP2 N-SH2 domain T42A = biological target: SHP2 N-SH2 domain T42A
SHP2 N-SH2 domain T52S = biological target: SHP2 N-SH2 domain T52S
[2] = biological target: SHP2 N-SH2 domain wild-type
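Note: displayed peptides selected on beads carrying the immobilized SH2 domain, with library peptides lacking any tyrosine serving as negative controls.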

Binder	enrichment score (SHP2 C-SH2 domain E139D)	enrichment score [1]	enrichment score (SHP2 N-SH2 domain L43F)	enrichment score (SHP2 N-SH2 domain T42A)	enrichment score (SHP2 N-SH2 domain T52S)	enrichment score [2]
ASFPLYEPAKM [MKI67_Y340]	inactive: 0.885	inactive: 0.591	inactive: 0.754	inactive: 0.685	inactive: 0.818	inactive: 0.76
ASFSLYEPAKM [MKI67_Y340_P338S]	inactive: 1.29	inactive: 1.09	inactive: 1.18	inactive: 1.04	inactive: 1.21	inactive: 1.68
TPRNTYKMTSL [MKI67_Y849]	inactive: 0.534	inactive: 0.706	inactive: 0.777	inactive: 0.43	inactive: 0.818	inactive: 1.03
TPRNTYKMTSV [MKI67_Y849_L854V]	inactive: 0.542	inactive: 0.575	inactive: 0.628	inactive: 0.498	inactive: 0.451	inactive: 0.63
EVVGRYSVHFA [MLH1_Y183_N187Y_YF]	inactive: 1.05	inactive: 1.03	inactive: 1.13	inactive: 0.926	inactive: 0.957	inactive: 0.943
EVVGGYSVHNA [MLH1_Y183_R182G]	inactive: 0.804	inactive: 0.544	inactive: 0.627	inactive: 0.418	inactive: 0.622	inactive: 0.73
EVVGRYSGHNA [MLH1_Y183_V185G]	inactive: 0.436	inactive: 0.571	inactive: 0.474	inactive: 0.633	inactive: 0.682	inactive: 0.81
THPFLYLTLEI [MLH1_Y293_S295T]	inactive: 2.22	inactive: 2.85	inactive: 2.03	inactive: 1.67	inactive: 1.43	inactive: 2.79
SSDKVYAHQMV [MLH1_Y379]	inactive: 0.653	inactive: 0.528	inactive: 0.557	inactive: 0.585	inactive: 0.6	inactive: 0.576
SSDKVCAHQMV [MLH1_Y379_Y379C]	inactive: 1.24	inactive: 1.21	inactive: 1.05	inactive: 0.965	inactive: 1.13	inactive: 1.12
KLNNEYLELNY [MME_Y497]	inactive: 0.992	inactive: 0.671	inactive: 0.863	inactive: 1.31	inactive: 0.705	inactive: 0.819
KLNNEHLELNF [MME_Y497_Y497H_YF]	inactive: 0.873	inactive: 0.643	inactive: 0.709	inactive: 0.718	inactive: 0.86	inactive: 0.803
KLNNEYLELNF [MME_Y497_YF]	inactive: 1.11	inactive: 0.95	inactive: 2.55	active: 4.4	inactive: 3.03	inactive: 1.09
YLELNYKEDEY [MME_Y502]	inactive: 0.701	inactive: 1.23	active: 3.26	active: 6.33	active: 3.61	inactive: 1.15
HLELNYKEDEF [MME_Y502_Y497H_YF]	inactive: 1.02	inactive: 0.848	inactive: 1.03	inactive: 0.532	inactive: 0.838	inactive: 0.578
IDFARYWHGDD [MMP11_Y162]	inactive: 1	inactive: 0.676	inactive: 0.809	inactive: 0.907	inactive: 1	inactive: 0.771
IDFARYWHGND [MMP11_Y162_D166N]	inactive: 1	inactive: 0.867	inactive: 0.863	inactive: 0.973	inactive: 0.93	inactive: 0.819
QVMDGYPMPIG [MMP14_Y353]	inactive: 0.943	inactive: 0.887	inactive: 0.57	inactive: 0.544	inactive: 0.783	inactive: 0.66
KERNQYGEVMV [MMP21_Y347]	inactive: 0.628	inactive: 0.651	inactive: 0.648	inactive: 0.539	inactive: 0.678	inactive: 0.608

Binder	enrichment score (SHP2 C-SH2 domain E139D)	enrichment score [1]	enrichment score (SHP2 N-SH2 domain L43F)	enrichment score (SHP2 N-SH2 domain T42A)	enrichment score (SHP2 N-SH2 domain T52S)	enrichment score [2]
HFNLTYRILSF [MMP23B_Y95]	inactive: 0.576	inactive: 0.693	inactive: 0.644	inactive: 0.604	inactive: 0.675	inactive: 0.695
HLNLTYRILSF [MMP23B_Y95_F91L]	inactive: 0.389	inactive: 0.528	inactive: 0.674	inactive: 0.785	inactive: 0.697	inactive: 0.692
HLLRIYYDITD [MMP27_Y307_W304L]	inactive: 1.66	inactive: 2.09	inactive: 2.02	inactive: 1.72	inactive: 1.83	inactive: 2.56
HLLRIYFDITD [MMP27_Y307_W304L_YF]	inactive: 1.13	inactive: 1.76	inactive: 1.35	inactive: 1.44	inactive: 1.44	inactive: 1.9
KYLENYYDLKK [MMP3_Y41]	inactive: 1.17	inactive: 1.27	inactive: 0.786	inactive: 0.954	inactive: 0.79	inactive: 1.3
KFLENYFDLKK [MMP3_Y41_YF]	inactive: 1.75	inactive: 1.71	inactive: 1.83	inactive: 1.89	inactive: 1.84	inactive: 2.17
YLENYYDLEKD [MMP3_Y42_K45E]	inactive: 1.04	inactive: 0.983	inactive: 1.29	inactive: 0.861	inactive: 0.93	inactive: 1.26
KTVQDYLEKFY [MMP8_Y36]	inactive: 1.2	inactive: 1.21	inactive: 0.987	inactive: 1.27	inactive: 1.29	inactive: 1.11
KTVQDYLKKFY [MMP8_Y36_E38K]	inactive: 0.857	inactive: 0.638	inactive: 0.601	inactive: 0.681	inactive: 0.764	inactive: 0.797
KIVQDYLEKFY [MMP8_Y36_T32I]	inactive: 1.31	inactive: 1.05	inactive: 1.2	inactive: 1.06	inactive: 1.16	inactive: 1.3
KIVQDYLEKFF [MMP8_Y36_T32I_YF]	inactive: 2.49	inactive: 2.1	inactive: 2.33	inactive: 2.4	inactive: 2.25	inactive: 1.99
KTVQDYLEKFF [MMP8_Y36_YF]	inactive: 1.82	inactive: 1.5	inactive: 1.71	inactive: 1.56	inactive: 1.96	inactive: 1.45
FEGRSYSACTT [MMP9_Y241]	inactive: 0.696	inactive: 0.856	inactive: 0.854	inactive: 0.823	inactive: 0.772	inactive: 0.856
WCKPPYFSCAV [MMS22L_Y28]	active: 3.26	inactive: 2.95	inactive: 3.15	inactive: 2.6	inactive: 3.05	inactive: 3.02
WCKPLYFSCAV [MMS22L_Y28_P27L]	active: 3.34	inactive: 2.94	active: 3.22	inactive: 2.57	inactive: 3.19	active: 3.36
ATYRGYDSDNP [MMUT_Y146_H143Y]	inactive: 0.442	inactive: 0.594	inactive: 0.538	inactive: 0.457	inactive: 0.561	inactive: 0.518
ADELEYSRTGL [MMUT_Y287_G284E]	inactive: 0.459	inactive: 0.578	inactive: 0.411	inactive: 0.489	inactive: 0.58	inactive: 0.628
ADRLEYSRTGL [MMUT_Y287_G284R]	inactive: 0.815	inactive: 0.225	inactive: 0.738	inactive: 0.645	inactive: 0.847	inactive: 0.354
